# Results from PubChem BioAssay AID1240 (Sanford-Burnham Center for Chemical Genomics, 2008).
# The whole screen tested about 50,000 compounds, of which about 800 (1.6%) showed an effect of 50% or more. The list shows a part of the results.
# Target: Bcl-2-like protein 10 (Homo sapiens) (UniProt Q9HD36)
# Assay: Phenotype converters, Bcl-B/TR3 peptide binding displacement, primary biochemical FP (AID 1240);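 further: 0% = Bcl-B with tracer peptide and DMSO and 100% = tracer peptide lacking Bcl-B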
# Conditions: GST-Bcl-B / FITC-TR3 peptide fluorescence polarization; stronger effect = higher value; compound at 3.75 mg/L
# Chain of UniProt Q9HD36 (Q9HD36 whole entry, looked up): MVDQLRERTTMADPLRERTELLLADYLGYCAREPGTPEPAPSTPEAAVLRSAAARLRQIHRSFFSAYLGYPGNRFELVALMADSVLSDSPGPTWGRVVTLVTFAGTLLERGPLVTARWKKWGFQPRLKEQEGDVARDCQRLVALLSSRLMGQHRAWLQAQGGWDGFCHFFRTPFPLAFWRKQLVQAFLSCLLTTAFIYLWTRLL
row,SMILES,displacement
1,COCCOC(=O)C1=C(C)NC(=O)NC1c1ccc(OCC(N)=O)cc1 (centres undefined),7.7%
2,Cc1cccc(C)c1NC(=O)C1COc2ccccc2O1 (centres undefined),0.6%
3,COC(=O)CSc1nc2ccc(N)cc2s1,0.3%
4,COc1ccc(Br)cc1/C=N/NC(=O)CSc1nc2ccccc2n1C,-13.1%
5,CCCCCCCNC1CC(=O)N(c2ccc(F)cc2)C1=O (centres undefined),-10%
6,COc1ccccc1N1CCN(/N=C(/C)c2ccc(Br)cc2)CC1,-11.9%
7,O=C(Nc1ccc(Cl)cc1)Nc1nnc(-c2cccs2)s1,9.6%
8,CC1(C)CC(=O)C(C(C2=C(O)CC(C)(C)CC2=O)c2cccc(OCc3ccccc3)c2)C(=O)C1 (centres undefined),-1.7%
9,CCOC(=O)C1=C(c2ccccc2)OC(N)=C(C#N)C1c1cccc(OC)c1 (centres undefined),2.2%
10,CC(=O)Oc1ccc(/C=C2\SC(=S)NC2=O)cc1,23.9%
11,O=C(c1ccc([N+](=O)[O-])cc1)N1CCN(Cc2ccccc2Br)CC1,-12.7%
12,O=c1[nH][nH]c(=O)c2cc(N3CCCC3)ccc12,4.4%
13,Cc1ccc(-c2ccc(OC(=O)COc3ccccc3Cl)cc2)cc1,21%
14,COc1ccc(C2=NN(C(C)=O)C(c3ccc(OC)cc3)C2)cc1 (centres undefined),3.2%
15,O=C(c1ccccc1F)N1CCN(C2CCN(Cc3ccccc3)CC2)CC1,3.4%
16,Cc1ccccc1Nc1ccc([N+](=O)[O-])c2nonc12,7.6%
17,CCN(CC)c1ccc(C2NC(=O)NC(C)=C2C(=O)OCCC#N)cc1 (centres undefined),3.3%
18,Cc1ccc2c(c1)NC(c1ccc(Cl)cc1Cl)C1=C(CC(C)(C)CC1=O)N2 (centres undefined),13.5%
19,CCOc1cc(/C=C2/SC(=S)NC2=O)cc(Cl)c1OCc1ccc(Cl)cc1Cl,-5.3%
20,CCOc1ccc(NC(=O)c2c(NC(=O)CCC(=O)O)sc3c2CCCC3)cc1,-6.7%
21,COC(=O)C1=C(C)N(C)C(C)=C(C(=O)OC)C1c1cc(Br)ccc1OC,-4.1%
22,Cc1ccc(Cl)cc1N(Cc1ccc(C(=O)N2CCCC2)cc1)S(=O)(=O)c1ccccc1,3.2%
23,C=C(C)CSc1nnc2n(Cc3ccccc3)c(=O)c3c4c(sc3n12)CCC4,0.7%

row,SMILES,displacement
1,COc1ccc2c(c1)NC(C)(C)c1sn(-c3ccccc3)c(=S)c1-2,1.5%
2,Cc1cc(C)n(C(=O)COc2cccc3ccccc23)n1,19.1%
3,O=S(=O)(c1cccc2cccnc12)N1CCCc2ccccc21,-5.3%
4,COc1ccc(NC(=O)C2C(C=C(Cl)Cl)C2(C)C)cc1 (centres undefined),7.5%
5,Cc1cc(C)nc(SCC(=O)n2c3ccccc3c3ccccc32)n1,-13.4%
6,CC(=O)Nc1cc(-c2ccccc2)nn1Cc1ccccc1,-3%
7,CCOc1ccccc1NC(=O)C(=O)NCc1cccnc1,7.3%
8,CC(C)Oc1ccc(C(Cc2nc3ccccc3[nH]2)c2nc3ccccc3[nH]2)cc1 (centres undefined),-11.6%
9,COc1ccc(-c2cn3cccc(C)c3n2)cc1Br,6.9%
10,Cc1ccc(N(CC(=O)NCc2cccnc2)S(C)(=O)=O)cc1,12.1%
11,COc1cc(C=C2C(=O)N(C)C(=O)N(C)C2=O)cc(Cl)c1OCCOc1ccccc1,13.5%
12,Cc1cccc(NC(=O)C2C3C=CC(C4CC34)C2C(=O)O)c1C (centres undefined),0.9%
13,O=C1S/C(=C/c2ccc(O)c([N+](=O)[O-])c2)C(=O)N1c1ccccc1,8%
14,COC(=O)c1cc(NC(=O)Cc2ccccc2[N+](=O)[O-])cc(C(=O)OC)c1,-8%
15,O=[N+]([O-])c1ccc(C2Oc3ccccc3C3CC(c4ccccc4)=NN32)s1 (centres undefined),-14%
16,COC(=O)C1=CNC=C(C(=O)OC)C1c1ccc(OC)c(OC)c1OC,2.4%
17,CC(Oc1ccccc1)C(=O)Nc1ccncc1 (centres undefined),-0.6%
18,COc1ccc(C(=O)NNC(=O)c2ccc(C)cc2)c(OC)c1,-8.4%
19,Cc1cccc(NC(=O)CC2Nc3ccccc3NC2=O)c1 (centres undefined),-0.6%
20,COc1ccccc1NC(=S)NC(NC(=O)c1cc(OC)c(OC)c(OC)c1)C(Cl)(Cl)Cl (centres undefined),10.2%
21,CC(=O)N1c2ccc(C)cc2C(Nc2ccc(C)cc2)CC1C (centres undefined),0.2%
22,Cc1ccccc1N(CC(=O)Nc1ccc(Cl)c(Cl)c1)S(C)(=O)=O,-4.9%
23,O=C(N/N=C/c1ccco1)c1cc(=O)[nH]c2ccccc12,-2.7%

row,SMILES,displacement
1,COc1ccc(/C=C2\SC(=S)N(NC(=O)c3ccccc3)C2=O)cc1OC,5.7%
2,CC(C)C1=CC(=NS(=O)(=O)c2ccc(Cl)cc2)C=C(C(C)C)C1=O,1.6%
3,COc1ccc(C2CC(C(F)(F)F)n3nc(C(=O)N4CCSCC4)cc3N2)cc1 (centres undefined),5.5%
4,O=C(c1ccc(-c2ccccc2)cc1)N1CCN(Cc2ccc(Cl)cc2)CC1,21.2%
5,S=C(c1ccc(OCc2ccccc2)cc1)N1CCN(c2cccc(Cl)c2)CC1,14%
6,Cc1nc(C)c(/C(O)=C/c2nc3ccc([N+](=O)[O-])cc3oc2=O)s1,-12%
7,O=C1C(=O)N(c2ncc(S(=O)(=O)c3ccc([N+](=O)[O-])cc3)s2)C(c2ccc(F)cc2)/C1=C(\O)c1ccc(Cl)cc1 (centres undefined),18.3%
8,Clc1ccc2nc(N/N=C/c3ccc4c(c3)OCO4)nc(-c3ccccc3)c2c1,83.7%
9,CC(=O)Cc1cc(O)c2ccccc2c1OC(=O)c1ccc(C)cc1,2.3%
10,O=C(Nc1ccc(Cl)cn1)c1cc(F)c(F)cc1Cl,-2.7%
11,CCOC(=O)c1c(C)oc2cc(Br)c(OCC)cc12,10.3%
12,CC(=O)N(C1=C(N2CCCCC2)C(=O)c2ccccc2C1=O)c1ccc(Br)cc1,2.8%
13,Cc1ccc(/C(O)=C2\C(=O)C(=O)N(CCCC(=O)O)C2/C=C/c2ccccc2)cc1 (centres undefined),9.5%
14,Cc1cc(-n2ccc(=O)[nH]c2=O)nc(-c2ccccc2)n1,-19.4%
15,CC(=O)/C(C)=C(\NC(=O)c1ccccc1)c1ccccc1,0.1%
16,O=C(NCCc1ccc(F)cc1)C(=O)Nc1ccc(Cl)cc1,1.6%
17,O=C(NNC(=O)c1ccco1)c1ccco1,-10.1%
18,COC(=O)c1c(C)oc2cc3c(C(=O)OC)c(C)oc3cc12,8.5%
19,CCOc1ccccc1C(=O)Nc1cccc(C(C)=O)c1,21.9%
20,CN1C(=O)/C(=C\c2ccccc2OCc2cccc3ccccc23)SC1=S,1.7%
21,COc1ccc(CNC(=O)Cc2ccc(Br)cc2)cc1,0%
22,O=[N+]([O-])c1cccc(-c2nc(-c3ccc(Cl)cc3)no2)c1,12.7%
23,CC(Nc1n[nH]c(=O)[nH]c1=O)C(=O)N/N=C/c1ccccc1Cl (centres undefined),-4.2%
